Reference: PubChem BioAssay AID373 (The Scripps Research Institute Molecular Screening Center, 2006)
This is one part of the list. Further columns of the screen follow, without active or inactive calls. Most of these compounds were active or inconclusive in the main read-out, so they are no random draw.

These compounds were tested against Sphingosine 1-phosphate receptor 3 (Homo sapiens) (UniProt Q99500) (assay: activators of S1P3 receptor signaling – cell-based, primary and confirmation, NFAT-BLA reporter, primary screen (AID 373)). Settings: S1P3 NFAT-BLA reporter cells, agonism, FRET ratio; measured here: confirmation screen, triplicate average; at 4.5 µM; stronger effect = higher value; relative to 1 µM S1P, basal subtracted.
Chain of UniProt Q99500 (Q99500 whole entry, looked up): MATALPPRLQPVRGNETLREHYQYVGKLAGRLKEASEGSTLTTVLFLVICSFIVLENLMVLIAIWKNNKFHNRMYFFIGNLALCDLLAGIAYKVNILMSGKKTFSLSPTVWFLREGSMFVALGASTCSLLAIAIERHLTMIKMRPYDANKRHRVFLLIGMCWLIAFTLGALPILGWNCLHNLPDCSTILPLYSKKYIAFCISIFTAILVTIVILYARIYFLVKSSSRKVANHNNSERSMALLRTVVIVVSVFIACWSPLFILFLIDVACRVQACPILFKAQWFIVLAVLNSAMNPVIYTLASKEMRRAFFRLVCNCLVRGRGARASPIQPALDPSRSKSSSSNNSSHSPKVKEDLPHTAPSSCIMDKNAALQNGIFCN
Summary of the method: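 Assay system: CHO cells stably expressing human S1P3, Gα16 and NFAT-β-lactamase reporter. Timing: overnight plating, 4 h compound 37 °C, 2 h substrate RT. Signal: β-lactamase FRET emission ratio 460/535 nm. Measure: percent activation versus median 1 µM S1P response, basal-subtracted, per plate. Repeats: primary screen single test, confirmation screen in triplicate.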

| SMILES | activation |
| --- | --- |
| O=C(NCc1ccco1)c1cc2ccc(O)cc2oc1=O | 11.3% |
| Cc1ccc(-c2cc(-c3ccc(Cl)cc3)c(C#N)c(N)n2)o1 | 7.8% |
| Cc1cc(C)n(-c2nc(NCCO)c3c4c(sc3n2)CCCC4)n1 | 39.7% |
| Cc1cc(C)n(-c2nc(NCC(C)O)c3c4c(sc3n2)CCCC4)n1 (stereo not given) | 37% |
| C=CCn1c(=O)c(C#N)cc2c(=O)n3ccccc3nc21 | 5.1% |
| CC(C)n1c(=N)c(C(=O)NCCc2ccccc2)cc2c(=O)n3ccccc3nc21 | 10.8% |
| CCCc1cc(C(=O)N(C2CCCCC2)C2CCCCC2)no1 | 46.1% |
| COc1ccc(CCn2c(C)cc(C(=O)CSc3nnnn3C)c2C)cc1 | 9.6% |
| CCCn1c(=O)c2ccccc2n2c(SCc3c(C(=O)OCC)oc4ccccc34)nnc12 | 13.8% |
| Nc1c(C(=O)NCc2ccc3c(c2)OCO3)c2nc3ccccc3nc2n1CCCN1CCOCC1 | 15.7% |
| Cc1ccc(C(C)C)c(OCc2nc(-c3nonc3N)no2)c1 | 11.4% |
| c1ccc(-c2nc3nonc3nc2-c2ccccc2)cc1 | 5.7% |
| N#CCSc1nnc(-c2ccccc2)c(-c2ccccc2)n1 | 4.5% |
| CCCSc1nc(N2CCOCC2)c2c(c1C#N)CCCC2 | 11.1% |
| O=C(NC1=NCCS1)c1cc(-c2ccccc2)nn1-c1ccccc1 | 4.6% |
| OCCN1CCN(c2nc(-c3ccccc3)c3cc(Cl)ccc3n2)CC1 | 7.1% |
| CCOc1ccc(-c2noc(-c3ccncc3)n2)cc1OCC | 5.7% |
| Cn1c(=O)c2c(-c3ccccc3)n(C3CCCCC3)cc2n(C)c1=O | 5.4% |
| CCOc1ccc(-c2nc(-c3ccccc3)no2)cc1OCC | 10.3% |
| Clc1ccc2nc(N3CCNCC3)nc(-c3ccccc3)c2c1 | 11% |
| CCOC(=O)c1cc2ccc(OC(=O)c3ccco3)cc2oc1=O | 28.4% |
| Cc1cccn2c(=O)c3cc(C(=O)NC(C)c4ccccc4)c(=N)n(CCCn4ccnc4)c3nc12 (stereo not given) | 7.7% |
| CCCCn1c(NC(=O)c2ccc(F)cc2)c(C#N)c2nc3ccccc3nc21 | 5.9% |
| CC(Oc1ccccc1Br)C(=O)N1CCc2ccccc21 (stereo not given) | 10.7% |
| O=c1c2ccccc2nnn1CSc1nnc(C2COc3ccccc3O2)n1-c1ccccc1 (stereo not given) | 5.7% |

| SMILES | activation |
| --- | --- |
| Cc1ccc(NC(=O)CC2Nc3ccccc3NC2=O)cc1Cl (stereo not given) | 9.2% |
| O=C(Oc1ccc(-c2nnco2)cc1)N(c1ccccc1)c1ccccc1 | 16.7% |
| c1ccc(C(Cc2nc(-c3ccncc3)no2)c2ccccc2)cc1 | 35.1% |
| c1ccc(C(Cc2nc(-c3ccccn3)no2)c2ccccc2)cc1 | 7.5% |
| Nc1c(C(=O)NCCN2CCOCC2)c2nc3ccccc3nc2n1CCc1ccccc1 | 4.6% |
| COc1ccc(CCn2c(N)c(C(=O)NCc3ccco3)c3nc4ccccc4nc32)cc1OC | 4.4% |
| CCSc1nc(N2CCOCC2)c2c(c1C#N)CCCC2 | 4.6% |
| c1ccc(-c2nnc(N3CCOCC3)nc2-c2ccccc2)cc1 | 30.5% |
| CCCCC(=O)NC(Nc1nc(C2CC2)cs1)(C(=O)OCC)C(F)(F)F (stereo not given) | 6.5% |
| CCOC(=O)C1=C(N)OC2=C(C(=O)CCC2)C1c1ccccc1OCC (stereo not given) | 15.1% |
| Cc1ccc2nc3c(cc(C#N)c(=O)n3-c3nccs3)c(=O)n2c1 | 5.1% |
| c1ccc(C(Cc2nc(-c3cccnc3)no2)c2ccccc2)cc1 | 16.3% |
| COc1ccccc1Oc1cc(C#N)c(C#N)cc1-n1nnc2ccccc21 | 20.5% |
| Cc1onc(-c2c(Cl)cccc2Cl)c1C(=O)N1CCc2ccccc21 | 8.2% |
| CCOc1ccc(-c2nc(-c3ccncc3)no2)cc1OCC | 19.4% |
| C/C(Cl)=C/Cn1c(N2CCCC2)nc2c1c(=O)n(C)c(=O)n2C | 6.9% |
| COc1ccc(Nc2nc(Nc3ccc(OC)cc3)nc(-n3[nH]c(=O)c(C)c3C)n2)cc1 | 9.1% |
| CCC(C)c1ccc2oc(-c3ccc(NC(=O)c4ncn[nH]4)cc3)nc2c1 (stereo not given) | 7.6% |
| N=c1c(C(=O)NCc2ccco2)cc2c(=O)n3ccccc3nc2n1Cc1ccc(Cl)cc1 | 10% |
| Cc1cccc2cc3c(NC(=O)c4ccccn4)nn(C)c3nc12 | 4.7% |
| Cc1cc(C)n(-c2nc(NCc3cccnc3)c3c4c(sc3n2)COC(C)(C)C4)n1 | 15.6% |
| Cc1cc(C)n(-c2nc(NCCCO)c3c4c(sc3n2)CCCC4)n1 | 46.8% |
| Cc1cc(C)nc(-n2nc(C)c(Sc3ccc(F)cc3)c2N)n1 | 57% |
| CC(=O)Oc1ccc2cc(-c3nc4ccccc4n3C)c(=O)oc2c1 | 6.3% |
| Cc1cc(-n2c(=O)c(C#N)cc3c(=O)n4ccccc4nc32)no1 | 6.3% |
